Test results as given in ChEMBL document CHEMBL4888484, “Replenishing the malaria drug discovery pipeline: Screening and hit evaluation of the MMV Hit Generation Library 1 (HGL1) against asexual blood stage Plasmodium falciparum ,using a nano luciferase reporter read-out” (2022).
About 540 (0.36%) of roughly 150,000 compounds showed an effect of 50% or more. This is one part of the list.

Tested on: Plasmodium falciparum
Assay: Primary screen in NF54 nanoGlo assay, in single point, at 2uM, 72h; a lower Z score goes with more inhibition
Type: functional, Erythrocyte
Conditions: timepoint 72 hour

Q: With `CN(C)C(=O)c1ccc(-c2noc(C3CCC3)n2)cc1` as the compound, how does the “% Inhibition” value read?
A: The value was -15%.

Q: And the Z score?
A: Its Z score is 2.64.

Q: Which “% Inhibition” value does the source give for `CCCCc1c(C)nn(-c2nc(C)c(C(=O)N3CCCCCC3)s2)c1C` here?
A: Its value is -33%.

Q: And the Z score?
A: The Z score was 2.93.

Q: For `O=c1ncc2c(cnn2[C@H]2CCS(=O)(=O)C2)n1Cc1ccccc1`, which “% Inhibition” value is on record?
A: The value was 8%.

Q: And the Z score?
A: Its Z score is -1.11.

Q: `COc1cc(OC)cc(C(=O)Nc2nc(C(=O)NC3CC3)cs2)c1` was tested. Which “% Inhibition” value did it give?
A: Its value is -9%.

Q: What about the Z score of the same compound?
A: Its Z score is 1.72.

Q: For `C[C@H](NC(=O)N1CC2CCC1C2)c1cccc(O)c1` (stereo partly drawn), which “% Inhibition” value is on record?
A: The value was 1%.

Q: What about the Z score of the same compound?
A: Its Z score is -0.2.

Q: How did the “% Inhibition” value turn out when `O=C1CN(C2CCCC2)C(=O)N1CCCn1ccnc1` was run?
A: Its value is -4%.

Q: What about the Z score of the same compound?
A: Its Z score is 0.55.

Q: How did the “% Inhibition” value turn out when `CN1Cc2ccc(CN(C)C(=O)CCC(F)(F)F)cc2C1` was run?
A: The value was -4%.

Q: What about the Z score of the same compound?
A: The Z score was 0.62.

Q: `Cn1c(=O)n(-c2ncccc2C#N)c2ccccc21` was tested. Which “% Inhibition” value did it give?
A: The value was 4%.

Q: What about the Z score of the same compound?
A: Its Z score is -0.6.

Q: With `CCNCc1cccc(Cl)c1Cl` as the compound, how does the “% Inhibition” value read?
A: The value was 4%.

Q: What about the Z score of the same compound?
A: Its Z score is -0.5.

Q: Which “% Inhibition” value does the source give for `N#CC1N(Cc2ncnn2CCF)CCCC12CCCCO2` (stereo not drawn) here?
A: The value was 4%.

Q: And the Z score?
A: The Z score was -0.51.

Q: What does the source list for `O=C(Cc1ccccc1)N1CCc2nc(N3CCc4ccccc4C3)nc(N3CCCCC3)c2C1`?
A: % Inhibition: 3%; Z score: -0.49

Q: Which results are given for `Cc1cccc(N2CCC(N3CCC[C@H](c4nc(C)n[nH]4)C3)CC2)c1`?
A: % Inhibition: -7%; Z score: 0.84

Q: How did the “% Inhibition” value turn out when `Cc1ccc(=O)n(CC2CN(c3ncc(Cl)cn3)C2)n1` was run?
A: Its value is -12%.

Q: What about the Z score of the same compound?
A: The Z score was 1.71.

Q: Which “% Inhibition” value does the source give for `COc1cc(CN2CCCN(c3ccc(C)cc3NC(=O)Nc3cccc(Cl)c3)C2=O)cc(OC)c1` here?
A: Its value is -8%.

Q: And the Z score?
A: The Z score was 0.8.

Q: How did the “% Inhibition” value turn out when `Cc1ccc(-c2n[nH]c(NC(=O)c3cnc4ccccn34)c2C)o1` was run?
A: The value was -22%.

Q: And the Z score?
A: Its Z score is 4.28.

Q: With `CN1C(=O)[C@]2(Nc3ccc(Cl)cc3C(=O)N2C2CC2)c2ccccc21` as the compound, how does the “% Inhibition” value read?
A: The value was -7%.

Q: What about the Z score of the same compound?
A: Its Z score is 1.06.

Q: Which results are given for `Nc1nc(N)c(S(=O)(=O)c2ccccc2)c(Nc2ccccc2)n1`?
A: % Inhibition: -1%; Z score: 0.07

Q: Which results are given for `Cc1ccc(CN(C)C(=O)NCCN2CCOCC2)nc1`?
A: % Inhibition: -16%; Z score: 2.08

Q: With `N#Cc1nc(-c2cccc3ccccc23)oc1N1CCN(C(c2ccccc2)c2ccccc2)CC1` as the compound, how does the “% Inhibition” value read?
A: Its value is -12%.

Q: And the Z score?
A: The Z score was 1.44.

Q: With `Cc1ccc(N2CCN(Cc3ccc(C(=O)NCCN4CCCCC4)cc3)CC2)cc1` as the compound, how does the “% Inhibition” value read?
A: The value was -14%.

Q: And the Z score?
A: Its Z score is 1.41.

Q: What does the source list for `CCc1ccc([C@H](NC(=O)Nc2ccc(S(N)(=O)=O)cc2)c2cccc(F)c2)cc1`?
A: % Inhibition: -6%; Z score: 0.86

Q: With `CC1CN(C(=O)CN2CCN(C)c3ccc(Cl)cc32)CC(C)O1` (stereo not drawn) as the compound, how does the “% Inhibition” value read?
A: The value was 0%.

Q: What about the Z score of the same compound?
A: The Z score was -0.02.

Q: `CC[C@H](NC(=O)Cc1sc(C)nc1C)c1ncnn1C` was tested. Which “% Inhibition” value did it give?
A: Its value is -8%.

Q: And the Z score?
A: Its Z score is 0.89.

Q: With `Cc1cnn([C@H]2CCN(Cc3ccccc3)C2)c1NC(=O)Cc1cccc(Cl)c1` as the compound, how does the “% Inhibition” value read?
A: The value was 5%.

Q: What about the Z score of the same compound?
A: Its Z score is -0.57.
